Test results taken from paper PMC6919601, “Identification of Plasmodium dipeptidyl aminopeptidase allosteric inhibitors by high throughput screening” (PLoS ONE, 2019).
Values joined by “and” are separate entries in the source; they are usually repeats but may differ in a detail not shown here. Identical values can stand only once. The whole screen tested about 110,000 compounds, of which about 230 (0.21%) showed an effect of 50% or more. The list shows a part of the results.

These molecules were tested against DPAP1 (Plasmodium falciparum, UniProt Q8IIJ9) (assay: primary screen, percent inhibition; read by cleavage of a fluorogenic dipeptide substrate; higher = more effect of the substance).
Design: species or system P. falciparum D10 trophozoite lysates; single well
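Also: 30 min substrate incubation versus DMSO and 10 µM JCP410 controls.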

DPAP1, sequence (Q8IIJ9 whole entry, looked up): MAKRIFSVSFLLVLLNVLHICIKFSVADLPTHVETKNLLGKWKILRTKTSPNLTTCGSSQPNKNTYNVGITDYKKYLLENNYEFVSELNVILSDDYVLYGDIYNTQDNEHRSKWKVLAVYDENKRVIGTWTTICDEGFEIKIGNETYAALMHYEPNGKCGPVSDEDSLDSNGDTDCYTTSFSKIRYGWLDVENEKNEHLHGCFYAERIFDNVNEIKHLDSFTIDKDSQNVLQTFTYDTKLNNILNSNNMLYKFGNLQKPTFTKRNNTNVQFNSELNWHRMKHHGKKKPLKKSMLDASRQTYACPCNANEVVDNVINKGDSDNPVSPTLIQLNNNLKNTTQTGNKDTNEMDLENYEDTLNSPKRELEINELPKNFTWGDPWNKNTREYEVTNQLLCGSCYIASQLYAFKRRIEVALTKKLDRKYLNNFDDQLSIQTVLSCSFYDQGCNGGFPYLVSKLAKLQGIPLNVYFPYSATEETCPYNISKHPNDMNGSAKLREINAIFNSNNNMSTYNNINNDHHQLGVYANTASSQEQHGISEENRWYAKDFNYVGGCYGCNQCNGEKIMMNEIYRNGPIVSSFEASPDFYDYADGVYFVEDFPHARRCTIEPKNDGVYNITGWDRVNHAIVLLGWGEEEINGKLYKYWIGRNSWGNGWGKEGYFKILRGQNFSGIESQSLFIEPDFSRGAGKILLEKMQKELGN

Compound	% Inhibition @ 10 uM
C=CCN1C(=O)C(Cc2ccc(OC)cc2)S/C1=N/N=C/c1ccco1 (stereo not drawn)	4.95%
COCc1cc(C)nc(SCC(=O)Nc2ccc(Br)c(C)c2)c1C#N	-8.9%
CC(=O)c1c(C)[nH]c(C(=O)NCC2COc3ccccc3O2)c1C (stereo not drawn)	-12.3%
COc1ccc(-n2cnc3cc(C(=O)NCc4cccnc4)ccc32)cc1	1.2%
Cc1cccc(C(=O)Nc2sc3c(c2C(=O)O)CCC3)c1	6.65%
OCCN1CCN(CCO)CC1	2.17%
CCC(C)n1c(=O)c2sccc2n2c(CCCC(=O)N3CCc4ccccc4C3)nnc12 (stereo not drawn)	-2.15%
CCOC(=O)c1sc(C)c(C(=O)NCCc2ccccc2)c1N	20.5%
Cc1ccc(CSc2nnc(C)n3c2cc2oc(C)cc23)cc1	-4.37%
COc1cccc(CN(C(=O)/C=C/c2ccco2)C2CCS(=O)(=O)C2)c1 (stereo not drawn)	0.366%
COc1ccc(-c2nc3cc(C)ccc3o2)cc1	-4.16%
CC1=C(C(=O)Nc2ccccc2)C(c2ccc(Cl)cc2Cl)C(C(=O)Nc2ccccc2)=C(C)N1	5.37%
COc1ccc(NC(=O)C2C3C=CC(O3)C2C(=O)O)c(OC)c1 (stereo not drawn)	1.88%
O=C1C=C(NCc2cccnc2)CC(c2ccccc2)C1 (stereo not drawn)	-0.988%
Cc1cc(C)c2c(n1)SCC(=O)N2CC(=O)NC(C)C12CC3CC(CC(C3)C1)C2 (stereo not drawn)	5.73%
CC(=O)c1ccc(NC(=O)c2cc(-c3ccc(C)o3)nc3ccccc23)cc1	1.28%
CCOC(=O)N1CCN(C(=O)Nc2cnc3ccccc3c2O)CC1	-1.07%
Cc1ccc2oc(-c3ccccc3)c/c(=N\CCCO)c2c1	5.44%
CCN1C(=O)S/C(=C/c2ccc(OC)c(OC)c2OC)C1=O	2.22%
NS(=O)(=O)c1ccc(NC2=NC(=O)C(CC(=O)Nc3ccc(Cl)cc3)S2)cc1 (stereo not drawn)	2.01%
Cc1ccc(N2C(=O)C3C4C=CC(C4)C3C2=O)cc1Cl (stereo not drawn)	2.44%
CCCn1c2ccccc2c2cnn(CC(=O)NCCc3ccsc3)c(=O)c21	3.95%
COc1cccc(NC(=O)c2sc(-c3ccccc3)nc2-c2ccc([N+](=O)[O-])cc2)c1	-6.82%
CO[C@H](Cc1ccccc1O)[C@@H](O)c1ccccc1	-7.63%

Compound	% Inhibition @ 10 uM
COc1ccc(CNC(=O)c2cc3c(=O)n4cccc(C)c4nc3n2C)cc1	4.73%
N#Cc1ccc(Oc2ccc(C(F)(F)F)cn2)cc1	-3.49%
CCOc1ccc(-n2cc(-c3ccccc3)c3c(NCCCN(C)C)ncnc32)cc1	0.426%
O=S1(=O)N=C(NCc2ccccc2)c2ccccc21	-1.05%
O=C(c1cc2ccccc2oc1=O)N(Cc1ccc(Cl)cc1)Cc1ccco1	-4.02%
Cc1nn(C)c(C(=O)Nc2cc(C(F)(F)F)cc(C(F)(F)F)c2)c1Br	-4.6%
CCc1nn2c(=O)cc(COc3ccc(/C=C4\C(=N)N5OC(C)=CC5=NC4=O)cc3OC)nc2s1	-5.76%
C[C@@H](C[C@H](NC(=O)c1ccc(-c2ccccc2Cl)nc1)C(=O)NC1(C#N)CCSCC1)c1ccccc1	4.54%
COc1ccc(OC)c(C2C(C#N)=C(N)OC3=C2C(=O)CC(C)(C)C3)c1 (stereo not drawn)	1.08%
CC(C)NC(=O)c1ccc(COc2ccc(C(C)(C)C)cc2)o1	-4.33%
O=C(c1cccnc1)N1N=C(C2CC2)CC1(O)C(F)(F)F (stereo not drawn)	-3.23% and 3.65%
COc1ccc(C(=O)N/C(=C\c2ccccc2)C(=O)Nc2ccc(C(=O)O)cc2)cc1	0.746%
CN(c1ccccc1)S(=O)(=O)c1ccc(Cl)cc1	0.827%
C[n+]1cc(C(=O)N2CCCCC2)ccc1/C=C/c1c[nH]c2ccccc12	-9.33%
CC(=O)c1ccc(NC(=O)C2(c3ccccc3)CCCC2)cc1	2.65%
CN(C)c1cccc(NC(=O)c2ccc(C(C)(C)C)cc2)c1	0.512%
COc1ccc(C2CC(c3cccs3)=NN2C(=O)CN2CCCCC2)cc1 (stereo not drawn)	9.88%
COc1ccc(C2=NC3(CCN(C(=O)c4ccc(C(C)(C)C)cc4)CC3)NC2=O)cc1	-3.22%
CCCN1CCN(C(=O)c2cn(C)c(=O)c3cc(OC)c(OC)cc23)CC1	-2.49%
COc1ccccc1N(CC(=O)NCc1ccccc1Cl)S(C)(=O)=O	21.6%
COc1cc(OC)cc(C(=O)NCc2cccs2)c1	0.13%
COc1cc(C2CC(=O)Nc3[nH]nc(-c4ccccc4)c32)cc(OC)c1OC (stereo not drawn)	1.76%
O=C(CCCNS(=O)(=O)c1cccs1)N1CCc2ccccc2C1	4.06%
CCC1CCc2c(sc(NC(=O)C3CCCCC3C(=O)O)c2C#N)C1 (stereo not drawn)	4.01%

Compound	% Inhibition @ 10 uM
CCOc1ccc(C(=O)NCCc2ccccc2)cc1S(=O)(=O)N1CCCCCC1	2.6%
COc1ccc(N(CC(=O)Nc2cccc(C)c2)S(C)(=O)=O)cc1OC	-3.25%
NC1=C(c2nc3ccccc3s2)C(=O)CN1CCN1CCOCC1	-5.63%
Cc1ccc(/C=C2N=C(/C=C/c3ccc(C)cc3)OC\2=O)cc1	-0.597%
O=C(NC1CCN(Cc2ccccc2)CC1)c1cc2c(Cl)nc3ccccc3c2s1	9.02%
OCCOCCn1/c(=N/c2ccccc2)oc2ccccc21	-5.13%
COc1cc(CN2CCN(Cc3cccnc3)CC2)cc(OC)c1OC	2.54%
COc1ccc(C2C(C(=O)Nc3ccccc3C)=C(C)N=c3s/c(=C/c4cnn(C)c4)c(=O)n32)cc1 (stereo not drawn)	-3.05%
O=C(c1nc2ccccc2o1)C(NC(=O)[C@H](CS(=O)(=O)Cc1ccccc1OC(F)F)NC(=O)N1CCOCC1)c1cccs1 (stereo partly drawn)	-6.68%
COc1cccc(C2CC(=O)Nc3c2c(=O)n(C)c(=O)n3C)c1OC (stereo not drawn)	-2.24%
Cc1ccc(C(=O)Nc2sc3c(c2C(N)=O)CCCC3)cc1	0.907%
O=C(COc1ccc(Cl)cc1)N1CCN(c2ccccc2)CC1	5.92%
O=S(=O)(c1ccccc1)N1CCN(c2cc(Cl)ccc2Cl)CC1	5.03%
Cc1cccc(C)c1OCC(=O)N1CCOCC1	-3.75%
C=CCc1c(C)c2ccc(OCC(=O)c3ccccc3)cc2oc1=O	7.5%
O=C1NC(=O)N(c2ccccc2)C(=O)/C1=C\Nc1ccc(S(=O)(=O)CCO)cc1	-0.996%
C/C(=C/C(=O)NCc1ccccc1)C(=O)O	-9.33%
COc1ccc(-c2cc3c(c(O)n2)c(=O)oc2ccccc23)cc1	3.61%
Cc1[nH]c2ccccc2c1CCC(=O)NC1CCCCC1	0.968%
CCN1CCN(CCNC(=O)Cn2ccc3cc(S(=O)(=O)N4CCCCC4)ccc32)CC1	-4.85%
CNC(=O)Cn1ncc2c3ccccc3n(Cc3ccccc3F)c2c1=O	-9.07%
COC(=O)c1cc(=O)n(Cc2ccc(F)cc2)/c(=N/Cc2ccc(F)cc2)s1	-11.1%
CC1=C(C#N)C(c2ccccc2F)C2=C(O)CCCC2=N1 (stereo not drawn)	1.4%
COc1cc(/C=C2/C(=N)N3OC(C)=CC3=NC2=O)ccc1OCc1ccccc1	0.317%

Compound	% Inhibition @ 10 uM
NC(=O)C1CCN(C(=O)NCc2noc3ccccc23)CC1	3.02%
O=C(NC1CC1)c1ccc2c(c1)nc(S)n1c3ccccc3nc21	0.23%
COc1ccc(CNC(=O)CSc2nc(-c3ccc4c(c3)OCO4)ccc2C#N)cc1OC	0.82%
O=C(CN1CCCCC1)Nc1ccc(C2CCCC2)cc1	-0.519%
CC(c1ccccc1)N1CCc2nc(S)nc(O)c2C1 (stereo not drawn)	-8.51%
N#Cc1c(-c2ccc3c(c2)OCO3)csc1N	1.21%
CCc1ccc2c(c1)[C@H]1OCC[C@H]1[C@@H](c1cccs1)N2	-6.02%
CC(C)CCNc1nnnc2c1sc1nc(N3CCOCC3)c3c(c12)CCCC3	2.95%
O=C(Cn1cc(S(=O)(=O)Cc2ccccc2F)c2ccccc21)NCc1ccco1	-1.07%
O=C(Nc1cccc2cccnc12)c1cccs1	-0.902%
O=C(Cc1ccccc1)N1CCC(c2nc(-c3ccc(S(=O)(=O)N4CCCC4)cc3)no2)CC1	2.05%
COc1cc(OC)cc(C(=O)Nc2ccc(C)cc2Br)c1	1.28%
COc1ccc(OC)c(NC(=O)COc2ccc3ccccc3c2Br)c1	-4.43%
COc1ccc(CCNC(=O)C2CCCN2S(=O)(=O)c2cccc3nsnc23)cc1OC (stereo not drawn)	-0.685%
Cc1c(/C=N/n2nnnc2N)c(O)n2c(nc3ccccc32)c1C#N	-4.93%
N#CC1=C(N)N(c2nc[nH]n2)C2=C(C(=O)CCC2)C1c1cccc(Br)c1 (stereo not drawn)	-5.63%
CCCOc1ccc(N2C(=O)CC(NCc3ccc4c(c3)OCO4)C2=O)cc1 (stereo not drawn)	-4.72%
COc1ccccc1NC(=O)Cn1cnc2c1c(=O)n(C)c(=O)n2C	0.147%
O=c1c2c([nH]c(=S)n1-c1ccccc1)-c1ccccc1CC21CCCCC1	4.98%
CNC(=O)C1=C(C)N=C(S)NC1c1ccc(OC)c2ccccc12 (stereo not drawn)	-3.37%
COc1ccc(OC)c(N(CC(=O)Nc2ccccc2-c2ccccc2)S(C)(=O)=O)c1	-4.43%
Cc1nc(NC(=O)c2cc3ccccc3o2)ccc1Br	4.61%
CC[C@H](NC(=O)C(CC(C)CC(C)(C)C)NC(=O)OCc1ccccc1)C(=O)c1nc2ccccc2o1 (stereo partly drawn)	0.174%
CCC(NC(=O)c1cc(C)nc2c1c(C)nn2-c1ccc(C)cc1)c1cccs1 (stereo not drawn)	-3.1%
